Results published in PubChem BioAssay AID1030 (National Center for Advancing Translational Sciences (NCATS), 2008).
Values joined by “and” are separate entries in the source; they are usually repeats but may differ in a detail not shown here. Identical values can stand only once. The whole screen tested about 220,000 compounds, of which about 16,000 (7.3%) were called active. The inconclusive results got no clear call from the source; some entries with a clear call stand among them for comparison. Calls follow the shape of the dose curve; as a rule, active = well fitted inhibition curve with a large enough effect (not every such curve was filed as active); inconclusive = small, poorly fitted or top-dose-only effect, or another doubt; inactive = no such curve, though single readings can be large or run the other way. Potencies beside an inconclusive call are fits to weak or partial responses and may not hold up.

Biological target: Aldehyde dehydrogenase 1A1 (Homo sapiens) (UniProt P00352)
UniProt P00352, sequence (P00352 whole entry, looked up): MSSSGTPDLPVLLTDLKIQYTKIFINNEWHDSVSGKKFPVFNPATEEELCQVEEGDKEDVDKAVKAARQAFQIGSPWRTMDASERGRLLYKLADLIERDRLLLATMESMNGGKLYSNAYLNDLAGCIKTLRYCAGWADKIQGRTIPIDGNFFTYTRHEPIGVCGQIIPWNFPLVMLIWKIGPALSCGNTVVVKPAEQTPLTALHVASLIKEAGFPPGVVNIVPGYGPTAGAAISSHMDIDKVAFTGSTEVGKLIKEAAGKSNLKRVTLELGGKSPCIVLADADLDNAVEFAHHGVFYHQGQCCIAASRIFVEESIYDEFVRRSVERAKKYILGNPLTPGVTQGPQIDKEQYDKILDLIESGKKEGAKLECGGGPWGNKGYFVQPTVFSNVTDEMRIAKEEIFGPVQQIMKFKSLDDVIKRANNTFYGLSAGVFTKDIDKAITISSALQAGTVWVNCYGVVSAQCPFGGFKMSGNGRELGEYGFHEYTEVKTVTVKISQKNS
Assay: qHTS Assay for Inhibitors of Aldehyde Dehydrogenase 1 (ALDH1A1);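 as to activity, negative = inhibition: plate controls were no enzyme wells and a reference inhibitor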
Conditions: Purified ALDH1A1, NADH fluorescence, propionaldehyde substrate; series mostly up to 75.3 µM; activity, negative = inhibition: at the top concentration
Potency is read from the fitted curve at half-maximal effect; tags tell the direction and shape of the fitted curve.

Structure (SMILES)	Potency	activity, negative = inhibition
O=S(=O)(c1cccs1)N1CCN(c2ccnc3cc(Cl)ccc23)CC1	inconclusive: 35.5 µM [inhibitor, single point]	
O=C(C1=C[C@H](c2ccccc2)C[C@H](OCc2ccc(CO)cc2)O1)N1CCCCCCC1		inactive: -12.9%
O=C(CCCn1cnc([N+](=O)[O-])n1)Nc1cccc2ccccc12		inactive: -0.988%
Cc1ccc(Cl)c2c1NC(=O)C2(O)CC(=O)c1ccc(Br)cc1 (configuration not stated)	inconclusive: 39.8 µM [inhibitor, single point]	
COc1cc(C2NC(=O)NC(c3ccccc3)=C2C(C)=O)ccc1OCC#N (configuration not stated)	inconclusive: 37.7 µM [inhibitor, single point]	
CCOc1ccc(/C=C/C(=O)Nc2cccc(C(C)=O)c2)cc1	inconclusive: 39.8 µM [inhibitor, single point]	
Cc1cc(C)c(C)c(S(=O)(=O)Nc2ccccc2C(=O)O)c1C	inconclusive: 39.8 µM [inhibitor, single point] and inconclusive: 35.5 µM [inhibitor, single point]	
CC1CCN(c2ccc(C(=O)Nc3nnc(C4CC4)s3)cc2[N+](=O)[O-])CC1	inconclusive: 7.94 µM [inhibitor, partial curve]	
O=C(COC(=O)c1ccc(Cl)nc1)Nc1ccc(S(=O)(=O)N2CCCC2)cc1	inconclusive: 20 µM [inhibitor, single point]	
CCN1C(=O)/C(=C/c2nc3ccccc3c(=O)n2-c2ccccc2)c2ccccc21	inconclusive: 20 µM [inhibitor, partial curve]	
O=C(O)c1ccc(COCC(F)(F)F)cc1	inconclusive: 35.5 µM [inhibitor, single point]	
NC(=O)c1cc(NC(=O)c2cc(Br)c(Br)s2)cc(C(N)=O)c1	inconclusive: 39.8 µM [inhibitor, single point]	
C#CC[N+](C)(C)CCN1C(=O)C2C(c3ccccc3)C=CC(c3ccccc3)C2C1=O (configuration not stated)	inconclusive: 17.8 µM [inhibitor, partial curve, poor fit]	
CCOc1ccc(CN2CCN(Cc3cc4ccccc4[nH]3)CC2CCO)cc1 (configuration not stated)	inconclusive: 39.8 µM [inhibitor, single point]	
Cc1cccc(OCCC(=O)Nc2ccc(S(=O)(=O)N3CCCC3)cc2)c1	inconclusive: 28.2 µM [inhibitor, partial curve]	
CC1CCN(S(=O)(=O)c2ccc(C(=O)Nc3nnc(-c4ccncc4)o3)cc2)CC1		inactive: -2.29%
COc1ccc(OC)c(-n2c(-c3ccccc3)n[nH]c2=S)c1	inconclusive: 35.5 µM [inhibitor, single point]	
